According to paper PMC6016943:
No constants are given. Whether binding was seen depends on the method and setting. For some assays here: In cells and extracts the contact can be indirect. Some results given as binding are weak or reduced against the parent protein; the word gives no strength. For some assays here: Where a sequence is shown, tags or fusion partners need not be part of it.

biological target: T1, AHA2-YFP^N (Arabidopsis thaliana) (UniProt P19456); assay: split reporter; BiFC with split YFP, transient co-expression in Nicotiana benthamiana leaf epidermal cells, confocal microscopy three days after infiltration
T1 sequence: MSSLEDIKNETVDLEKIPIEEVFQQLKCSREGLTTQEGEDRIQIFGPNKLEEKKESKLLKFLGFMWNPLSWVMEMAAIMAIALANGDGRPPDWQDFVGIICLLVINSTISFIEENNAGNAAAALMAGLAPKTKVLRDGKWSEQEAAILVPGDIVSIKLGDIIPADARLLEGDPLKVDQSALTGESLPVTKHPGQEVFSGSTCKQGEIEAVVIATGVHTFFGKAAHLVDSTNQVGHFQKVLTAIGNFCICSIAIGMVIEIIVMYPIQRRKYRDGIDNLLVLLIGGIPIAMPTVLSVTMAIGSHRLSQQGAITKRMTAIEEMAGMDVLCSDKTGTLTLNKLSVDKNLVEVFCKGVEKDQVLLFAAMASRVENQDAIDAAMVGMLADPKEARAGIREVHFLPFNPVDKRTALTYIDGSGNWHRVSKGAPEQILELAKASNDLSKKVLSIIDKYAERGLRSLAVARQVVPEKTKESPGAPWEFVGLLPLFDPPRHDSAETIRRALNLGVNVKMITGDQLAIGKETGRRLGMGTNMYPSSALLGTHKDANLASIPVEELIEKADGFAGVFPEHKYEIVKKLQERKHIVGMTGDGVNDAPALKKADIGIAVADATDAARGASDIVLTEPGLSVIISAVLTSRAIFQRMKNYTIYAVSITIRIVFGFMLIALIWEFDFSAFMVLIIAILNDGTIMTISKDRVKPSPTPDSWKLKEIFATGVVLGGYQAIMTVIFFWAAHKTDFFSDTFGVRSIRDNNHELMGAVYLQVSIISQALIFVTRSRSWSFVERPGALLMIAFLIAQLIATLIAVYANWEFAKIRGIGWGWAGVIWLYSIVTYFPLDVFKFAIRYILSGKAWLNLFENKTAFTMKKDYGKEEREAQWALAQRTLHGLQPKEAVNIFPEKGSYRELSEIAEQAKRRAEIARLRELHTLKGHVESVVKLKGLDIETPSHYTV

| Binder | binding |
| --- | --- |
| PP2C.D2-YFP^C (enzyme, UniProt Q0V7V2 1-384) MSGSLMNLFSLCFKPFGHVCDNSEAGSGGGGGVSGGTGGEGKDGLLWFRDLGKYCGGDFSMAVIQANQVLEDQSQVESGNFGTFVGVYDGHGGPEAARYVCDHLFNHFREISAETQGVVTRETIERAFHATEEGFASIVSELWQEIPNLATVGTCCLVGVIYQNTLFVASLGDSRVVLGKKGNCGGLSAIQLSTEHNANNEDIRWELKDLHPDDPQIVVFRHGVWRVKGIIQVSRSIGDMYMKRPEFNKEPISQKFRIAEPMKRPLMSATPTILSHPLHPNDSFLIFASDGLWEHLTNEKAVEIVHNHPRAGSAKRLIKAALHEAARKREMRYSDLRKIDKKVRRHFHDDITVIVVFLNHDLISRGHINSTQDTTVSIRSALEH | binds |
| PP2C.D5-YFP^C (enzyme, UniProt Q5PNS9 1-400) MLSGLMNFLNACLWPRSDQQARSASDSGGRQEGLLWFRDSGQHVFGDFSMAVVQANSLLEDQSQLESGSLSSHDSGPFGTFVGVYDGHGGPETSRFINDHMFHHLKRFTAEQQCMSSEVIKKAFQATEEGFLSIVTNQFQTRPQIATVGSCCLVSVICDGKLYVANAGDSRAVLGQVMRVTGEAHATQLSAEHNASIESVRRELQALHPDHPDIVVLKHNVWRVKGIIQVSRSIGDVYLKRSEFNREPLYAKFRLRSPFSKPLLSAEPAITVHTLEPHDQFIICASDGLWEHMSNQEAVDIVQNHPRNGIAKRLVKVALQEAAKKREMRYSDLKKIDRGVRRHFHDDITVIVVFFDTNLVSRGSMLRGPAVSVRGAGVNLPHNTLAPCTTPTQAAAAGAS | binds |
| PP2C.D6-YFP^C (enzyme, UniProt Q9SD12 21-379) KSSDSTGKQDGLLWYKDFGQHLVGEFSMAVVQANNLLEDQSQVESGPLSTLDSGPYGTFIGIYDGHGGPETSRFVNDHLFQHLKRFAAEQASMSVDVIKKAYEATEEGFLGVVTKQWPTKPQIAAVGSCCLVGVICGGMLYIANVGDSRAVLGRAMKATGEVIALQLSAEHNVSIESVRQEMHSLHPDDSHIVMLKHNVWRVKGLIQISRSIGDVYLKKAEFNKEPLYTKYRIREPFKRPILSGEPTITEHEIQPQDKFLIFASDGLWEQMSNQEAVDIVQNHPRNGIARRLVKMALQEAAKKREMRYSDLKKIERGVRRHFHDDITVVIIFLDTNQVSSVKGPPLSIRGGGMTFPKKI | binds |

biological target: T2, GFP-SAUR19 (Arabidopsis thaliana) (UniProt Q9FJG1); assay: co-IP; solubilized microsomal proteins (300-400 ug) of 6-day-old etiolated Arabidopsis seedlings co-expressing PP2C.D-HA and GFP-SAUR19; precipitated with anti-GFP antibody (pre-immune serum as control), blots with anti-HA and anti-GFP
T2 sequence: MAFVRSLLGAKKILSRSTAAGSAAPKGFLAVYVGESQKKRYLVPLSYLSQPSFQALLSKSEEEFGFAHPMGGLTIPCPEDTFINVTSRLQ

| Binder | binding |
| --- | --- |
| PP2C.D5-HA (enzyme, UniProt Q5PNS9 1-400) MLSGLMNFLNACLWPRSDQQARSASDSGGRQEGLLWFRDSGQHVFGDFSMAVVQANSLLEDQSQLESGSLSSHDSGPFGTFVGVYDGHGGPETSRFINDHMFHHLKRFTAEQQCMSSEVIKKAFQATEEGFLSIVTNQFQTRPQIATVGSCCLVSVICDGKLYVANAGDSRAVLGQVMRVTGEAHATQLSAEHNASIESVRRELQALHPDHPDIVVLKHNVWRVKGIIQVSRSIGDVYLKRSEFNREPLYAKFRLRSPFSKPLLSAEPAITVHTLEPHDQFIICASDGLWEHMSNQEAVDIVQNHPRNGIAKRLVKVALQEAAKKREMRYSDLKKIDRGVRRHFHDDITVIVVFFDTNLVSRGSMLRGPAVSVRGAGVNLPHNTLAPCTTPTQAAAAGAS | binds |
| PP2C.D6-HA (enzyme, UniProt Q9SD12 21-379) KSSDSTGKQDGLLWYKDFGQHLVGEFSMAVVQANNLLEDQSQVESGPLSTLDSGPYGTFIGIYDGHGGPETSRFVNDHLFQHLKRFAAEQASMSVDVIKKAYEATEEGFLGVVTKQWPTKPQIAAVGSCCLVGVICGGMLYIANVGDSRAVLGRAMKATGEVIALQLSAEHNVSIESVRQEMHSLHPDDSHIVMLKHNVWRVKGLIQISRSIGDVYLKKAEFNKEPLYTKYRIREPFKRPILSGEPTITEHEIQPQDKFLIFASDGLWEQMSNQEAVDIVQNHPRNGIARRLVKMALQEAAKKREMRYSDLKKIERGVRRHFHDDITVVIIFLDTNQVSSVKGPPLSIRGGGMTFPKKI | no binding |

biological target: T3, SAUR19 (SMALL AUXIN UP RNA 19), yeast two-hybrid bait from pBTM116-SAUR19 (Arabidopsis thaliana) (UniProt Q9FJG1); assay: two-hybrid; lexA-based yeast two-hybrid; bait pBTM116-SAUR19, prey pACT2-PP2C.D, strain L40ccU3; selection media, room temperature, 3 to 6 days
T3 sequence: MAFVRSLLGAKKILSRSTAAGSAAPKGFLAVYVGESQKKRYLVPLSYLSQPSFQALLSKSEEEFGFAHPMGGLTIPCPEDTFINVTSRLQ

| Binder | binding |
| --- | --- |
| PP2C.D3, yeast two-hybrid prey from pACT2-PP2C.D3 (enzyme, UniProt Q9LHJ9 1-385) MVSSATILRMVAPCWRRPSVKGDHSTRDANGRCDGLLWYKDSGNHVAGEFSMSVIQANNLLEDHSKLESGPVSMFDSGPQATFVGVYDGHGGPEAARFVNKHLFDNIRKFTSENHGMSANVITKAFLATEEDFLSLVRRQWQIKPQIASVGACCLVGIICSGLLYIANAGDSRVVLGRLEKAFKIVKAVQLSSEHNASLESVREELRSLHPNDPQIVVLKHKVWRVKGIIQVSRSIGDAYLKKAEFNREPLLAKFRVPEVFHKPILRAEPAITVHKIHPEDQFLIFASDGLWEHLSNQEAVDIVNTCPRNGIARKLIKTALREAAKKREMRYSDLKKIDRGVRRHFHDDITVIVVFLDSHLVSRSTSRRPLLSISGGGDLAGPST | binds |
| PP2C.D4, yeast two-hybrid prey from pACT2-PP2C.D4 (enzyme, UniProt Q94CL8 1-384) MVSTTFRRIVSPCWRPFGIGEDSSPGSDDTNGRLDGLLWYKDSGNHITGEFSMAVVQANNLLEDHSQLESGPISLHESGPEATFVGVYDGHGGPEAARFVNDRLFYNIKRYTSEQRGMSPDVITRGFVATEEEFLGLVQEQWKTKPQIASVGACCLVGIVCNGLLYVANAGDSRVVLGKVANPFKELKAVQLSTEHNASIESVREELRLLHPDDPNIVVLKHKVWRVKGIIQVSRSIGDAYLKRAEFNQEPLLPKFRVPERFEKPIMRAEPTITVHKIHPEDQFLIFASDGLWEHLSNQEAVDIVNSCPRNGVARKLVKAALQEAAKKREMRYSDLEKIERGIRRHFHDDITVIVVFLHATNFATRTPISVKGGGLLSAHNPVL | binds |
| PP2C.D8, yeast two-hybrid prey from pACT2-PP2C.D8 (enzyme, UniProt O81760 1-380) MLRALARPLERCLGSRASGDGLLWQSELRPHAGGDYSIAVVQANSRLEDQSQVFTSSSATYVGVYDGHGGPEASRFVNRHLFPYMHKFAREHGGLSVDVIKKAFKETEEEFCGMVKRSLPMKPQMATVGSCCLVGAISNDTLYVANLGDSRAVLGSVVSGVDSNKGAVAERLSTDHNVAVEEVRKEVKALNPDDSQIVLYTRGVWRIKGIIQVSRSIGDVYLKKPEYYRDPIFQRHGNPIPLRRPAMTAEPSIIVRKLKPQDLFLIFASDGLWEHLSDETAVEIVLKHPRTGIARRLVRAALEEAAKKREMRYGDIKKIAKGIRRHFHDDISVIVVYLDQNKTSSSNSKLVKQGGITAPPDIYSLHSDEAEQRRLLNVLY | binds |
| PP2C.D5, yeast two-hybrid prey from pACT2-PP2C.D5 (enzyme, UniProt Q5PNS9 1-400) MLSGLMNFLNACLWPRSDQQARSASDSGGRQEGLLWFRDSGQHVFGDFSMAVVQANSLLEDQSQLESGSLSSHDSGPFGTFVGVYDGHGGPETSRFINDHMFHHLKRFTAEQQCMSSEVIKKAFQATEEGFLSIVTNQFQTRPQIATVGSCCLVSVICDGKLYVANAGDSRAVLGQVMRVTGEAHATQLSAEHNASIESVRRELQALHPDHPDIVVLKHNVWRVKGIIQVSRSIGDVYLKRSEFNREPLYAKFRLRSPFSKPLLSAEPAITVHTLEPHDQFIICASDGLWEHMSNQEAVDIVQNHPRNGIAKRLVKVALQEAAKKREMRYSDLKKIDRGVRRHFHDDITVIVVFFDTNLVSRGSMLRGPAVSVRGAGVNLPHNTLAPCTTPTQAAAAGAS | binds |
| PP2C.D6, yeast two-hybrid prey from pACT2-PP2C.D6 (enzyme, UniProt Q9SD12 1-379) MLSTLMKLLSACLWPSSSSGKSSDSTGKQDGLLWYKDFGQHLVGEFSMAVVQANNLLEDQSQVESGPLSTLDSGPYGTFIGIYDGHGGPETSRFVNDHLFQHLKRFAAEQASMSVDVIKKAYEATEEGFLGVVTKQWPTKPQIAAVGSCCLVGVICGGMLYIANVGDSRAVLGRAMKATGEVIALQLSAEHNVSIESVRQEMHSLHPDDSHIVMLKHNVWRVKGLIQISRSIGDVYLKKAEFNKEPLYTKYRIREPFKRPILSGEPTITEHEIQPQDKFLIFASDGLWEQMSNQEAVDIVQNHPRNGIARRLVKMALQEAAKKREMRYSDLKKIERGVRRHFHDDITVVIIFLDTNQVSSVKGPPLSIRGGGMTFPKKI | binds |
| PP2C.D9, yeast two-hybrid prey from pACT2-PP2C.D9 (enzyme, UniProt Q84JD5 1-393) MFSWLARMALFCLRPMRRYGRMNRDDDDDDDHDGDSSSSGDSLLWSRELERHSFGDFSIAVVQANEVIEDHSQVETGNGAVFVGVYDGHGGPEASRYISDHLFSHLMRVSRERSCISEEALRAAFSATEEGFLTLVRRTCGLKPLIAAVGSCCLVGVIWKGTLLIANVGDSRAVLGSMGSNNNRSNKIVAEQLTSDHNAALEEVRQELRSLHPDDSHIVVLKHGVWRIKGIIQVSRSIGDAYLKRPEFSLDPSFPRFHLAEELQRPVLSAEPCVYTRVLQTSDKFVIFASDGLWEQMTNQQAVEIVNKHPRPGIARRLVRRAITIAAKKREMNYDDLKKVERGVRRFFHDDITVVVIFIDNELLMVEKATVPELSIKGFSHTVGPSKFSIFLS | no binding |
